Assay results reported in PMC3827261.
Results are given in words; binding and its absence hold for the method and conditions named. Binding seen in cells or lysates may run through a third protein. Some entries that bind do so weakly or less than the wild type. For some assays here: Sequences can lack the tags named with a protein.

The chains behind the UniProt entries cited, without tags or fusion partners.
UniProt Q96LC9: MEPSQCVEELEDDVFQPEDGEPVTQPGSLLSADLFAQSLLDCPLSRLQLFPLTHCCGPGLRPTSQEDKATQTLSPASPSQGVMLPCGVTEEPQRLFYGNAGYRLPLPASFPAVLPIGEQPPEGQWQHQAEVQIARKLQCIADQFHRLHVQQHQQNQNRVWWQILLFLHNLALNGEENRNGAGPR

Legend:
[1] = target: HER2 (human (endogenous in SK-BR3, BT-474, MDA-MB-453)) (UniProt P04626); test: co-IP; IP with HER2 antibody (control rabbit IgG) from whole cell lysates in RIPA buffer, 4°C overnight, protein A-agarose, immunoblot; SK-BR3 and BT-474; MDA-MB-453 with or without heregulin (100 ng/mL, 30 min) or lapatinib (10 µM, 2 hrs)
[2] = target: HER2 (human (endogenous in SK-BR3, BT-474, MDA-MB-453)) (UniProt P04626); test: co-IP; HER2 immunoprecipitated from equal amounts of mitochondrial (ME) and non-mitochondrial extracts (NME) of BT-474 cells, immunoblot
[3] = target: HER2 (human (endogenous in SK-BR3, BT-474, MDA-MB-453)) (UniProt P04626); test: co-IP; MDA-MB-453 cells transfected with WT-PUMA or TM-PUMA; IP with HER2 antibody from whole cell lysate, immunoblot

binding [1] | binding [2] | binding [3] | Molecule
no binding |  |  | Bmf (from UniProt Q96LC9 1-184)
binds | binds |  | p53 upregulated modulator of apoptosis (PUMA) (protein, UniProt Q9BXH1 1-193) MARARQEGSSPEPVEGLARDGPRPFPLGRLVPSAVSCGLCEPGLAAAPAAPTLLPAAYLCAPTAPPAVTAALGGSRWPGGPRSRPRGPRPDGPQPSLSLAEQHLESPVPSAPGALAGGPTQAAPGVRGEEEQWAREIGAQLRRMADDLNAQYERRRQEEQQRHRPSPWRVLYNLIMGLLPLPRGHRAPEMEPN
 |  | binds | HA-tagged wild-type PUMA (protein, UniProt Q9BXH1 1-193) MARARQEGSSPEPVEGLARDGPRPFPLGRLVPSAVSCGLCEPGLAAAPAAPTLLPAAYLCAPTAPPAVTAALGGSRWPGGPRSRPRGPRPDGPQPSLSLAEQHLESPVPSAPGALAGGPTQAAPGVRGEEEQWAREIGAQLRRMADDLNAQYERRRQEEQQRHRPSPWRVLYNLIMGLLPLPRGHRAPEMEPN
no binding |  |  | Bad (protein, UniProt Q92934 1-168) MFQIPEFEPSEQEDSSSAERGLGPSPAGDGPSGSGKHHRQAPGLLWDASHQQEQPTSSSHHGGAGAVEIRSRHSSYPAGTEDDEGMGEEPSPFRGRSRSAPPNLWAAQRYGRELRRMSDEFVDSFKKGLPRPKSAGTATQMRQSSSWTRVFQSWWDRNLGRGSSAPSQ
